From the supplement of paper PMC8728848
The other results are listed elsewhere or left out.

How the values were obtained:
Assay in all cases: glycan array binding signal (z-score within array); higher = stronger binding
Conditions in all cases: glycan notation: IUPAC condensed, linker removed
[1] = target: Fuc(a1-2)Gal(b1-4)GlcNAc(b1-3)Gal(b1-4)GlcNAc(b1-3)Gal(b1-4)GlcNAc
Procedure, shortened: (§1)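 Glycan array binding is given as a within-array Z-score, which can be read as non-binding when negative. The arrays, 3228 of them, came from the Consortium for Functional Glycomics database and were retained only where the protein sequence was available. Z-scores were averaged across arrays of the same protein sequence at different concentrations or buffers and across linkers.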

[2] = target: Fuc(a1-2)Gal(b1-4)GlcNAc(b1-3)GalNAc
Procedure, shortened: as §1

[3] = target: Fuc(a1-2)Gal(b1-4)GlcNAc(b1-3)[Fuc(a1-2)Gal(b1-4)GlcNAc(b1-6)]GalNAc
Procedure, shortened: as §1

[4] = target: Fuc(a1-2)Gal(b1-4)GlcNAc(b1-3)[Fuc(a1-3)[Gal(b1-4)]GlcNAc(b1-6)]Gal(b1-4)Glc
Procedure, shortened: as §1

[5] = target: Fuc(a1-2)Gal(b1-4)GlcNAc(b1-6)GalNAc
Procedure, shortened: as §1

[6] = target: Fuc(a1-2)Gal(b1-4)GlcNAc6S
Procedure, shortened: as §1

[7] = target: Fuc(a1-2)Gal(b1-4)[Fuc(a1-3)]GlcNAc
Procedure, shortened: as §1

[8] = target: Fuc(a1-2)Gal(b1-4)[Fuc(a1-3)]GlcNAc(b1-2)Man(a1-3)[Fuc(a1-2)Gal(b1-4)[Fuc(a1-3)]GlcNAc(b1-2)Man(a1-6)]Man(b1-4)GlcNAc(b1-4)[Fuc(a1-6)]GlcNAc
Procedure, shortened: as §1

[9] = target: Fuc(a1-2)Gal(b1-4)[Fuc(a1-3)]GlcNAc(b1-2)[Fuc(a1-2)Gal(b1-4)[Fuc(a1-3)]GlcNAc(b1-4)]Man(a1-3)[Fuc(a1-2)Gal(b1-4)[Fuc(a1-3)]GlcNAc(b1-2)Man(a1-6)]Man(b1-4)GlcNAc(b1-4)GlcNAc
Procedure, shortened: as §1

[10] = target: Fuc(a1-2)Gal(b1-4)[Fuc(a1-3)]GlcNAc(b1-3)Gal(b1-4)[Fuc(a1-3)]GlcNAc
Procedure, shortened: as §1

[11] = target: Fuc(a1-2)Gal(b1-4)[Fuc(a1-3)]GlcNAc(b1-3)Gal(b1-4)[Fuc(a1-3)]GlcNAc(b1-3)Gal(b1-4)[Fuc(a1-3)]GlcNAc
Procedure, shortened: as §1

[12] = target: Fuc(a1-2)Gal(b1-4)[Fuc(a1-3)]GlcNAc(b1-3)GalNAc
Procedure, shortened: as §1

[13] = target: Fuc(a1-2)Gal(b1-4)[Fuc(a1-3)]GlcNAc(b1-3)[Neu5Ac(a2-6)Gal(b1-4)GlcNAc(b1-6)]Gal(b1-4)Glc
Procedure, shortened: as §1

[14] = target: Fuc(a1-2)Gal3S(b1-4)GlcNAc
Procedure, shortened: as §1

[15] = target: Fuc(a1-2)Gal6S(b1-3)GlcNAc
Procedure, shortened: as §1

[16] = target: Fuc(a1-2)Gal6S(b1-3)GlcNAc6S
Procedure, shortened: as §1

Fuc(a1-2)Gal6S(b1-4)Glc = target: Fuc(a1-2)Gal6S(b1-4)Glc
Procedure, shortened: as §1

[17] = target: Fuc(a1-2)Gal6S(b1-4)Glc6S
Procedure, shortened: as §1

Fuc(a1-2)[Gal(a1-3)]Gal = target: Fuc(a1-2)[Gal(a1-3)]Gal
Procedure, shortened: as §1

[18] = target: Fuc(a1-2)[Gal(a1-3)]Gal(b1-3)GalNAc
Procedure, shortened: as §1

[19] = target: Fuc(a1-2)[Gal(a1-3)]Gal(b1-3)GalNAc(b1-3)Gal(a1-4)Gal(b1-4)Glc
Procedure, shortened: as §1

[20] = target: Fuc(a1-2)[Gal(a1-3)]Gal(b1-3)GlcNAc
Procedure, shortened: as §1

[21] = target: Fuc(a1-2)[Gal(a1-3)]Gal(b1-3)GlcNAc(b1-2)Man(a1-3)[Fuc(a1-2)[Gal(a1-3)]Gal(b1-3)GlcNAc(b1-2)Man(a1-6)]Man(b1-4)GlcNAc(b1-4)GlcNAc
Procedure, shortened: as §1

[22] = target: Fuc(a1-2)[Gal(a1-3)]Gal(b1-3)GlcNAc(b1-2)Man(a1-3)[Fuc(a1-2)[Gal(a1-3)]Gal(b1-3)GlcNAc(b1-2)Man(a1-6)]Man(b1-4)GlcNAc(b1-4)[Fuc(a1-6)]GlcNAc
Procedure, shortened: as §1

[23] = target: Fuc(a1-2)[Gal(a1-3)]Gal(b1-3)GlcNAc(b1-3)GalNAc
Procedure, shortened: as §1

[24] = target: Fuc(a1-2)[Gal(a1-3)]Gal(b1-3)GlcNAc(b1-6)GalNAc
Procedure, shortened: as §1

[25] = target: Fuc(a1-2)[Gal(a1-3)]Gal(b1-4)Glc
Procedure, shortened: as §1

[26] = target: Fuc(a1-2)[Gal(a1-3)]Gal(b1-4)GlcNAc
Procedure, shortened: as §1

[27] = target: Fuc(a1-2)[Gal(a1-3)]Gal(b1-4)GlcNAc(b1-2)Man
Procedure, shortened: as §1

[28] = target: Fuc(a1-2)[Gal(a1-3)]Gal(b1-4)GlcNAc(b1-2)Man(a1-3)[Fuc(a1-2)[Gal(a1-3)]Gal(b1-4)GlcNAc(b1-2)Man(a1-6)]Man(b1-4)GlcNAc(b1-4)GlcNAc
Procedure, shortened: as §1

[29] = target: Fuc(a1-2)[Gal(a1-3)]Gal(b1-4)GlcNAc(b1-2)Man(a1-3)[Fuc(a1-2)[Gal(a1-3)]Gal(b1-4)GlcNAc(b1-2)Man(a1-6)]Man(b1-4)GlcNAc(b1-4)[Fuc(a1-6)]GlcNAc
Procedure, shortened: as §1

[30] = target: Fuc(a1-2)[Gal(a1-3)]Gal(b1-4)GlcNAc(b1-3)GalNAc
Procedure, shortened: as §1

[31] = target: Fuc(a1-2)[Gal(a1-3)]Gal(b1-4)GlcNAc(b1-3)[Fuc(a1-2)[Gal(a1-3)]Gal(b1-4)GlcNAc(b1-6)]GalNAc
Procedure, shortened: as §1

[32] = target: Fuc(a1-2)[Gal(a1-3)]Gal(b1-4)GlcNAc(b1-6)GalNAc
Procedure, shortened: as §1

[33] = target: Fuc(a1-2)[Gal(a1-3)]Gal(b1-4)[Fuc(a1-3)]Glc
Procedure, shortened: as §1

[34] = target: Fuc(a1-2)[Gal(a1-3)]Gal(b1-4)[Fuc(a1-3)]GlcNAc
Procedure, shortened: as §1

[35] = target: Fuc(a1-2)[Gal(a1-3)]Gal(b1-4)[Fuc(a1-3)]GlcNAc(b1-3)GalNAc
Procedure, shortened: as §1

B1: SP16663B-bot-321-25-321 (Bacteroides ovatus) (protein)
chain: DDDDEVTMNSKFYLSTKVFPVDSYEASLSVILKDNSVVVNELQPNYRFVACATERLSKDVKITADSDDNLVSAYNKANDTEYNILPAENYSFTNKTVTIENGESVSGDSIKIELLNVGSLTTEGGYLLPVTISSIEGNNLDALSSNRGVVYLKIQNIHVNVESGQPAEGTLIADRSGWTVKVAPTTRGDAKNLIDGTNSDVARDGGAEYWLTVDIGKVQTLTGIRNKCYASSYSPTAVEVFTSSDGAKWKSIGAVTISKSGTQYIKFSKAVETRYLKYYVKQGPNTVSLTEFDLYAK
In the case of B1, the “glycan array binding signal (z-score)” value [1] is reported as -0.369, the “glycan array binding signal (z-score)” value [2] is reported as -0.106 and the “glycan array binding signal (z-score)” value [3] is reported as -0.088. For the same binder, the “glycan array binding signal (z-score)” value [4] was -0.632, the “glycan array binding signal (z-score)” value [5] was -0.35 and the “glycan array binding signal (z-score)” value [6] was -0.147. For the same binder, the “glycan array binding signal (z-score)” value [7] was -0.253, the “glycan array binding signal (z-score)” value [8] was -0.139 and the “glycan array binding signal (z-score)” value [9] was -0.394. For the same binder, the “glycan array binding signal (z-score)” value [10] was -0.392, the “glycan array binding signal (z-score)” value [11] was -0.007 and the “glycan array binding signal (z-score)” value [12] was 0.682. For the same binder, the “glycan array binding signal (z-score)” value [13] was -0.138, the “glycan array binding signal (z-score)” value [14] was 0.461 and the “glycan array binding signal (z-score)” value [15] was -0.561. For the same binder, the “glycan array binding signal (z-score)” value [16] was -0.097, the “glycan array binding signal (z-score)” value (Fuc(a1-2)Gal6S(b1-4)Glc) was 0.316 and the “glycan array binding signal (z-score)” value [17] was 0.45. For the same binder, the “glycan array binding signal (z-score)” value (Fuc(a1-2)[Gal(a1-3)]Gal) was 0.758, the “glycan array binding signal (z-score)” value [18] was 0.341 and the “glycan array binding signal (z-score)” value [19] was -0.892. For the same binder, the “glycan array binding signal (z-score)” value [20] was -0.303, the “glycan array binding signal (z-score)” value [21] was -0.105 and the “glycan array binding signal (z-score)” value [22] was -0.169. The “glycan array binding signal (z-score)” value [23] was -0.725, the “glycan array binding signal (z-score)” value [24] was -0.437 and the “glycan array binding signal (z-score)” value [25] was -0.354. For the same binder, the “glycan array binding signal (z-score)” value [26] was -0.016, the “glycan array binding signal (z-score)” value [27] was 0.212 and the “glycan array binding signal (z-score)” value [28] was 0.346. The “glycan array binding signal (z-score)” value [29] was -0.33, the “glycan array binding signal (z-score)” value [30] was -0.61 and the “glycan array binding signal (z-score)” value [31] was 1.9. The “glycan array binding signal (z-score)” value [32] was -0.309, the “glycan array binding signal (z-score)” value [33] was -0.673 and the “glycan array binding signal (z-score)” value [34] was -0.06. The “glycan array binding signal (z-score)” value [35] was -0.48.
